# PubChem BioAssay AID686970 (National Center for Advancing Translational Sciences (NCATS), 2013)
# In all, about 360,000 compounds went through this assay and about 6,000 (1.7%) were called active. Inconclusive results, whose numbers are uncertain, are shown with a selection of clear calls. Calls follow the shape of the dose curve; as a rule, active = well fitted cell-killing curve with a large enough effect; inconclusive = small, poorly fitted or top-dose-only effect, or effect the other way; inactive = flat fitted curve, though single readings scatter. Potencies of inconclusive entries are left out as doubtful fits.
# Assay: qHTS for induction of synthetic lethality in tumor cells producing 2HG: qHTS for the HT-1080-NT fibrosarcoma cell line;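 also: NT is the 2HG producing partner of a matched IDH1 knockdown line; nearly all actives have a fitted effect of over 55% in size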;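 as to activity, negative = less viability: 0% = DMSO-treated cells and -100% = media-only wells without cells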
# Details: HT-1080-NT fibrosarcoma viability, CellTiter-Glo ATP luminescence, 48 h; activity, negative = less viability: at 46.1 µM (top of the series) unless noted
# Outline: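 Read-out is CellTiter-Glo luminescence after 10 minutes at room temperature, following 48 hours' compound treatment of HT-1080-NT cells (750 cells/well, RPMI, 5% FBS, 37 degrees C).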
# Potency is read from the fitted curve at half-maximal effect; tags tell the direction and shape of the fitted curve.
SMILES,Potency,"activity, negative = less viability"
COc1ccc2c(c1)CSC(c1ccccc1)C2=O (configuration not stated),"inconclusive [rising, single point]",–
CCOC(=O)Nc1nc(-c2ccccc2)c(C(=O)c2ccc(Cl)cc2)s1,–,inconclusive: -34.8% [cytotoxic]
Cc1cccc(NC(=O)CSc2nnc(-c3ccco3)c(-c3ccco3)n2)c1,inactive,–
COc1ccccc1C1CC(c2ccc(Cl)cc2)Nc2nc(N)nn21 (configuration not stated),"inconclusive [cytotoxic, single point]",–
COC(=O)CC1COc2ccccc2N1S(=O)(=O)c1ccc(OC)cc1 (configuration not stated),"inconclusive [cytotoxic, partial curve]",–
Cc1ccccc1NC1=C/C(=N\S(=O)(=O)c2ccc(C(=O)O)cc2)c2ccccc2C1=O,active: 23.1 µM,–
N=c1ccn2c(n1)O[C@H]1[C@@H](CO)[C@H](O)O[C@H]12,–,inconclusive: 15.9% [cytotoxic]
CC1CCCN(C(=O)c2cccc(S(=O)(=O)Nc3cc(C(F)(F)F)ccc3Cl)c2)C1 (configuration not stated),inactive,–
COc1ccc(C)cc1NC(=O)CCc1ccc(S(=O)(=O)N2CCOCC2)cc1,inactive,–
O=C(/C=C/c1ccccc1)CCN1CCOCC1,"inconclusive [cytotoxic, single point]",–
CCOc1ccc(-c2cc(C(=O)N/N=C/c3cccnc3)c3ccccc3n2)cc1,"inconclusive [cytotoxic, single point]",–
O=C(O)c1cccc2c1C(=O)c1ccccc1C2=O,"inconclusive [rising, single point]",–
FC(F)(F)c1ccccc1NC(=S)NN=C1CCCCCC1,active: 13 µM,–
Cc1ccc(-c2csc3ncnc(OCC(=O)NC(=O)NCc4ccco4)c23)cc1,"inconclusive [cytotoxic, partial curve]",–
CC(C)CN(C(=O)COC(=O)C12CC3CC(CC(C3)C1)C2)c1c(N)n(Cc2ccccc2)c(=O)[nH]c1=O,–,inconclusive: 2.68% [cytotoxic]
NC(N)=Nc1nc(-c2ccccc2)c2cc(Cl)ccc2n1,"inconclusive [cytotoxic, single point]",–
O=C(Nc1ccc(N2CCCC2)cc1)c1cc(Br)ccc1Cl,"inconclusive [cytotoxic, full curve]",–
Cc1c2cnn(CC(=O)NCc3ccccn3)c(=O)c2c(C)n1Cc1ccc(Cl)cc1,–,inconclusive: 7.66%
c1ccc(OCCOCCN2CCOCC2)cc1,inactive,–
CCCC(=O)N1CCC1(C)C(=O)NS(=O)(=O)c1ccc(Cl)cc1 (configuration not stated),"inconclusive [rising, single point]",–
CC(C)c1ccc(Nc2ncc3c(n2)CCN(C(=O)Nc2ccc(F)c(Cl)c2)C3)cc1,"inconclusive [cytotoxic, single point]",–
COC(=O)C1=CN(c2cccc(C(F)(F)F)c2)C=C(C(=O)OC)C1c1ccc(O)c(OC)c1,"inconclusive [cytotoxic, single point]",–
Cc1nc2c(Br)cc(Br)cc2cc1O,"inconclusive [cytotoxic, single point]",–
CCC(CC)C(=O)Nc1ccc(Sc2ccc([N+](=O)[O-])cc2)cc1,"inconclusive [cytotoxic, single point]",–

SMILES,Potency,"activity, negative = less viability"
Cc1cccc(C2=N/C(=C\c3cccs3)C(=O)O2)c1,"inconclusive [cytotoxic, single point]",–
C=CCn1c(O)c(N=NC(=S)Nc2ccccc2C)c2cc(S(=O)(=O)N3CCOCC3)ccc21,"inconclusive [cytotoxic, partial curve, poor fit]",–
O=C1CSc2ccc(C(=O)N3CCN(c4ccccn4)CC3)cc2N1,inactive,–
Cc1ccc(Cn2c(C)nc3ccc([N+](=O)[O-])cc3c2=O)cc1,inactive,–
COc1cccc(CNC(=O)CCS(=O)(=O)c2ccccc2Cl)c1,inactive,–
COc1ccc(S(=O)(=O)N(C)C[C@H]2Oc3c(NC(=O)Nc4ccc(C(F)(F)F)cc4)cccc3C(=O)N([C@H](C)CO)C[C@@H]2C)cc1,"inconclusive [cytotoxic, single point]",–
COc1ccc(-c2cc(C(=O)N(C)CC(=O)Nc3ccccc3Br)c3ccccc3n2)cc1OC,"inconclusive [cytotoxic, full curve, poor fit]",–
O=C1c2cccc(NCCCNCCO)c2C(=O)c2cccc(NCCCNCCO)c21,"inconclusive [cytotoxic, single point]",–
c1cc(N2CCOCC2)ccc1-c1ccc2nncn2c1,"inconclusive [rising, single point]",–
Cc1onc(-c2ccccc2)c1C(=O)OCC(=O)Nc1ccc(OC(F)(F)F)cc1,inactive,–
COc1ccccc1NS(=O)(=O)c1cccc(C(=O)NNC(=O)c2ccc(Cl)nc2)c1,"inconclusive [cytotoxic, single point]",–
Cc1ccc(N2C(=O)Nc3ccccc3C2(O)C(=O)N2CCN(c3ccccn3)CC2)cc1C (configuration not stated),inactive,–
O=C(NCCN1CCCC1)c1ccc2c(c1)N(Cc1cccc(Cl)c1)C(=O)c1ccccc1S2(=O)=O,inactive,–
Brc1c(OCCOCCn2cncn2)ccc2ccccc12,inactive,–
Cc1cc(-n2cnc3c(=O)[nH]cnc32)ccc1N,inactive,–
COc1ccccc1CCC(=O)OCC(=O)c1c(N)n(CC(C)C)c(=O)n(C)c1=O,inactive,–
Cc1ccc2nc(C(=O)N3CCc4c([nH]c5ccccc45)C3c3ccccn3)cn2c1 (configuration not stated),inactive,–
O=C(O)c1cc(O)ccc1NC(=O)C(c1ccccc1)c1ccccc1,inactive,–
CC[C@]12c3[nH]c4ccccc4c3CCN1C(=O)C(CC(=O)NC/C=C(\C)CCC=C(C)C)C[C@@H]2C(=O)N1CCN(C(=O)C2CC2)CC1 (some centres not stated),inactive,–
CC(C)(C)C1CCc2onc(C(=O)Nc3ccc4c(c3)OCO4)c2C1 (configuration not stated),"inconclusive [cytotoxic, partial curve]",–
C=Cn1cc[n+](CC(=O)c2ccc(OC)cc2)c1,inactive,–
CSc1ccccc1-c1cnc(NC(C)=O)cn1,"inconclusive [rising, partial curve]",–
CC(C)(C)C(=O)NC(NC(=S)Nc1sc2c(c1C#N)CCCC2)C(Cl)(Cl)Cl (configuration not stated),inactive,–
CC(=O)C1CCC2C3CCC4=CC(=O)CC[C@]4(C)[C@@]3(F)C(O)C[C@]12C (some centres not stated),"inconclusive [rising, partial curve, poor fit]",–

SMILES,Potency,"activity, negative = less viability"
CCCOc1cccc(CN2CCCCC2c2cccnc2)c1 (configuration not stated),"inconclusive [cytotoxic, single point]",–
C[C@@H]1CN([C@H](C)CO)C(=O)c2cc(NC(=O)Nc3ccc(C(F)(F)F)cc3)ccc2O[C@H]1CN(C)S(=O)(=O)c1ccccc1,"inconclusive [cytotoxic, single point]",–
Cc1nc(N2CCN(Cc3ccccc3)CC2)nc2c1C(=O)CCC2,inactive,–
COc1ccc(OC)c(NC(=O)CC2(CC(=O)O)CCCC2)c1,inactive,–
COc1ccc2ccc(OC)c(/C=N/NC(=O)c3cc4ccccc4o3)c2c1,"inconclusive [cytotoxic, single point]",–
Cc1ccc(/C=C/C(=O)N2CCCN(C(=O)/C=C/c3ccc(C)cc3)CC2)cc1,inactive,–
N#CCSc1nc(Nc2ccc3c(c2)OCO3)c2ccccc2n1,"inconclusive [cytotoxic, single point]",–
O=c1oc2c(CN3CCOCC3)c(O)ccc2c2c1CCC2,inactive,–
CCN(C(=O)CSc1nnc(-c2ccc(OC)cc2)n1C(C)C)C1CCS(=O)(=O)C1 (configuration not stated),inactive,–
NC(=O)c1cccc(-c2coc3c(C(=O)NCc4ccccc4)cccc23)c1,"inconclusive [cytotoxic, single point]",–
CCOc1cccc(/C=N/NC(=S)Nc2ccccc2[N+](=O)[O-])c1O,"inconclusive [cytotoxic, single point]",–
Cc1c(C(=O)OCC(C)C)[nH]c2c1C(=O)CC(c1ccco1)C2 (configuration not stated),active: 1.46 µM,–
CCCNC(=O)c1c(NC(=O)C2COc3ccccc3O2)sc2c1CCCC2 (configuration not stated),–,inconclusive: 4.44% [cytotoxic]
O=C(NN=Cc1c(O)ccc2ccccc12)c1ccc2c(c1)OCO2,active: 5.8 µM,–
O=C(COC(=O)c1ccc(O)cc1O)Nc1cc(-c2ccccc2)nn1-c1ccccc1,"inconclusive [cytotoxic, single point]",–
C=CCNc1nc(NCc2cccc(OC)c2)c2sc(-c3ccccc3)cc2n1,"inconclusive [cytotoxic, single point]",–
O=C(NNC(=O)c1csc(N2CCOCC2)n1)c1ccc(Cl)nc1,inactive,–
O=S(=O)(c1ccccc1)c1ncc(C(F)(F)F)cc1Cl,"inconclusive [cytotoxic, single point]",–
CC(/C=N/n1c(-c2ccccc2)n[nH]c1=S)=C\c1ccco1,"inconclusive [cytotoxic, partial curve]",–
CSc1ccc(/C=N/n2c(C3CCCCC3)n[nH]c2=S)cc1,–,inconclusive: -33.7% [cytotoxic]
COc1cc(NCCCNC(C)C)c2nccc(C)c2c1,inactive,–
Cc1nn(-c2ccc(C(F)(F)F)cn2)c(C)c1Oc1ccccc1O,"inconclusive [cytotoxic, single point]",–
CCOc1ccc(-n2c(-c3ccccc3)nnc2-c2ccccc2)cc1,"inconclusive [cytotoxic, partial curve]",–
COc1ccc(N(C(=O)c2ccco2)S(=O)(=O)c2cc(Cl)c(Cl)cc2Cl)cc1,"inconclusive [cytotoxic, single point]",–
